From a compilation of properties of binary mixtures (doi:10.1016/j.molliq.2017.03.036)
Some of these densities may be calculated back from excess volumes.

Test: xn = mol fraction of the nth substance listed
Details: 101 kPa

CC(=O)[O-].CC[n+]1ccn(C)c1 + CN(CCO)CCO
mass density [kg/m3]
Details	x1 = 0.1002	x1 = 0.2002	x1 = 0.2997	x1 = 0.4001	x1 = 0.4995	x1 = 0.5998	x1 = 0.7003	x1 = 0.7998	x1 = 0.8999	x1 = 1
288.15 K	1051	–	1065	1072	–	1084	1090	1096	1101	1106
293.15 K	1048	1055	1062	–	1075	1081	1087	1093	1098	1103
298.15 K	1044	1052	1059	1065	–	1078	1084	1090	1095	1100
303.15 K	1041	–	1055	1062	1069	–	1081	1087	1092	–
308.15 K	1037	1045	1052	1059	1065	1072	1078	1084	–	1094
313.15 K	1034	1042	1049	1056	–	1069	–	–	1086	1091
318.15 K	–	1039	1046	1053	1059	1066	–	1078	–	–
323.15 K	–	1035	1042	1049	1056	1063	1069	1074	1080	–
328.15 K	–	1032	1039	1046	–	–	1066	1071	1077	1082
333.15 K	1020	1028	1036	1043	1050	1056	1063	1068	–	–
338.15 K	1016	1025	1033	1040	1047	1053	1060	1065	1071	1076
343.15 K	1013	1022	1030	–	1044	1050	1057	1062	1068	1073
348.15 K	1009	1018	1026	1034	–	1047	1054	1059	1065	1070
353.15 K	1006	–	1023	1031	1038	–	1051	–	1062	1067

CN(CCO)CCO + CC(=O)[O-].CC[n+]1ccn(C)c1
x2 = 0
Details	mass density [kg/m3]
288.15 K	1044
293.15 K	1040
298.15 K	1036
303.15 K	1032
308.15 K	1029
313.15 K	1025
318.15 K	1021
323.15 K	1017
333.15 K	1009
348.15 K	998
353.15 K	994
